# Measured values: patent US20240270821A1, “GIP/GLP1/GCG TRI-RECEPTOR AGONISTS AND USES THEREOF” (priority 2023, published 2024)
# Like-named read-outs stand apart in the source and are kept apart here. Not every detail of the peptide structures is certain; ends, links or a residue may be inferred. At least one compound was matched to its structure with a doubt left. Starred links: 1 amine or outer side, 2 acyl side, 3 side chain; linkers in the order of their positions; H or OH if unused. Non-standard residues stand in square brackets, D forms with d. Groups on a side chain read outwards from the residue. No end group written: not given here. *: point of attachment. C18 diacid = O=C(O)CCCCCCCCCCCCCCCCC(=O)*; γGlu = O=C(O)[C@H](CCC(=O)[*:2])N[*:1]; αMe4Pal = C[C@](N)(Cc1ccncc1)C(=O)O; αMeY = C[C@](N)(Cc1ccc(O)cc1)C(=O)O; Hyp = O=C(O)[C@@H]1C[C@@H](O)CN1; 4Pal = N[C@@H](Cc1ccncc1)C(=O)O; αMeL = CC(C)C[C@](C)(N)C(=O)O; Orn = NCCC[C@H](N)C(=O)O; AEEA = NCCOCCOCC(=O)O; Aib = CC(C)(N)C(=O)O
# Columns and labels:
# Type in all cases: cell-based
# human GcgR = human GcgR (Homo sapiens, UniProt P47871); assay: Functional cAMP activity in the presence of 1% HSA; settings: in the presence of 1% HSA, geometric mean of relative EC50, read-out: cAMP Rel EC50, hGcgR
# hGLP-1R [1] = biological target: T1, hGLP-1R (Homo sapiens, UniProt P43220); assay: Functional cAMP activation in the presence of 0.1% casein (no HSA); settings: in the presence of 0.1% casein (no HSA); geometric mean; read-out: Relative cAMP EC50, hGLP-1R
# hGLP-1R [2] = biological target: T1, hGLP-1R; assay: Functional cAMP activity in the presence of 1% HSA; settings: in the presence of 1% HSA, geometric mean of relative EC50, read-out: cAMP Rel EC50, hGLP-1R
# hGIPR [3] = biological target: T2, hGIPR (Homo sapiens, UniProt P48546); assay: Functional cAMP activity in the presence of 1% HSA; settings: in the presence of 1% HSA, geometric mean of relative EC50, read-out: cAMP Rel EC50, hGIPR
# T2 sequence (P48546 22-466): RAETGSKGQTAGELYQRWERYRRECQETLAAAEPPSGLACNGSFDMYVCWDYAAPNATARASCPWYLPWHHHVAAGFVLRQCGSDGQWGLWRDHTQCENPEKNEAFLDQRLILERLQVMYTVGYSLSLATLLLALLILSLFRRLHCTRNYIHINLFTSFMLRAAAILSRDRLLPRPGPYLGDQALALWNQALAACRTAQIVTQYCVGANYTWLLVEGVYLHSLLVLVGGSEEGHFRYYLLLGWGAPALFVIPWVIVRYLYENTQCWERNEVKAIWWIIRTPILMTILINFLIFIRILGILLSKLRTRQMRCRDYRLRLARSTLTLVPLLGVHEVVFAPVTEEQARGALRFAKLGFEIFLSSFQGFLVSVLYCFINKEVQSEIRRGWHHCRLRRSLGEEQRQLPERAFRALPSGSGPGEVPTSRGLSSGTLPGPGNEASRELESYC
# hGcgR = hGcgR (Homo sapiens, UniProt P47871); assay: Functional cAMP activation in the presence of 0.1% casein (no HSA); settings: in the presence of 0.1% casein (no HSA); geometric mean; read-out: Relative cAMP EC50, hGcgR
# hGIPR [4] = biological target: T2, hGIPR; assay: as above; settings: in the presence of 0.1% casein (no HSA); geometric mean; read-out: Relative cAMP EC50, hGIPR
# [5] = HEK-293 clonal cells expressing hGcgR
# [6] = HEK-293 clonal cells expressing hGLP-1R
# [7] = HEK-293 clonal cells expressing hGIPR
# T1 sequence (P43220 24-463): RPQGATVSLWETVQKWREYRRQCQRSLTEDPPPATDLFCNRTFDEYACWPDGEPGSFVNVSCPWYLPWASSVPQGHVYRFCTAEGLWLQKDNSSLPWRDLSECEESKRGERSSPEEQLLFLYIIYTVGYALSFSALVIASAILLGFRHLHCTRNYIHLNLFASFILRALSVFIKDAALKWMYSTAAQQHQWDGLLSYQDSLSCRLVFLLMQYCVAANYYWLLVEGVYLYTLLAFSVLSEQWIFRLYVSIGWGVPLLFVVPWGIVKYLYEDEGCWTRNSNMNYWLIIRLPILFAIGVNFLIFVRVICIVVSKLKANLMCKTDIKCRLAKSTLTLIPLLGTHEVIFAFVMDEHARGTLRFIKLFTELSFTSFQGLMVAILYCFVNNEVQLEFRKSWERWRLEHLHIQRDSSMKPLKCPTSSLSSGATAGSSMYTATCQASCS
# Chain of hGcgR (P47871 26-477): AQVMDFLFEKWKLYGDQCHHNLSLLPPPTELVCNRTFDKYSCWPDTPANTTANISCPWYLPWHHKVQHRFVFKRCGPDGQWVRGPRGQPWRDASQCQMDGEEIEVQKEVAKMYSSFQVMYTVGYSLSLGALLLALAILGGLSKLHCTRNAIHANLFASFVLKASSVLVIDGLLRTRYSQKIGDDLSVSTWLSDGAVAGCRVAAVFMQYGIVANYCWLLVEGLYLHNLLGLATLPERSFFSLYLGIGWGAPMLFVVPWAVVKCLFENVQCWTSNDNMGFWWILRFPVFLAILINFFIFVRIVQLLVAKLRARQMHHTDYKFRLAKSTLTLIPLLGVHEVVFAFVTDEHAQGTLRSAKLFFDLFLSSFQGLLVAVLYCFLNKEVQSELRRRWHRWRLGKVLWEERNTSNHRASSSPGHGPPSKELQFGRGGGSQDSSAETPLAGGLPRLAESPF
# Chain of human GcgR (P47871 26-477): as above
Molecule,EC50 (human GcgR; HEK-293 clonal cell line),EC50 (hGLP-1R [1]),EC50 (hGLP-1R [2]; HEK-293 clonal cell line),EC50 (hGIPR [3]; HEK-293 clonal cell line),EC50 (hGcgR),EC50 (hGIPR [4]),EC50 (human GcgR; [5]),EC50 (hGLP-1R [2]; [6]),EC50 (hGIPR [3]; [7])
CC[C@H](C)[C@H](NC(=O)[C@H](CC(C)C)NC(=O)[C@](C)(Cc1ccc(O)cc1)NC(=O)[C@H](CCC(=O)O)NC(=O)[C@@H](NC(=O)[C@H](Cc1ccccc1)NC(=O)[C@H](CCC(N)=O)NC(=O)[C@](C)(Cc1ccncc1)NC(=O)[C@H](CCC(N)=O)NC(=O)[C@H](C)NC(=O)[C@H](CCCCNC(=O)[C@@H](CCC(=O)O)NC(=O)CC[C@H](NC(=O)CCCCCCCCCCCCCCCCC(=O)O)C(=O)O)NC(=O)[C@H](CCCN)NC(=O)[C@H](CC(=O)O)NC(=O)[C@H](CC(C)C)NC(=O)[C@](C)(CC(C)C)NC(=O)[C@H](CCC(N)=O)NC(=O)[C@H](CO)NC(=O)[C@H](Cc1ccncc1)NC(=O)[C@H](CC(=O)O)NC(=O)[C@H](CO)NC(=O)[C@@H](NC(=O)[C@H](Cc1ccccc1)NC(=O)[C@@H](NC(=O)CNC(=O)[C@H](CCC(N)=O)NC(=O)C(C)(C)NC(=O)[C@@H](N)Cc1ccc(O)cc1)[C@@H](C)O)[C@@H](C)O)[C@@H](C)CC)C(=O)N[C@@H](CCC(=O)O)C(=O)NC(C)(C)C(=O)NCC(=O)N1CCC[C@H]1C(=O)N[C@@H](CO)C(=O)N[C@@H](CO)C(=O)NCC(=O)N[C@@H](C)C(=O)N1CCC[C@H]1C(=O)N1CCC[C@H]1C(=O)N1CCC[C@H]1C(=O)N[C@@H](CO)C(=O)NCC(=O)N[C@@H](CO)C(=O)N[C@@H](CCC(=O)O)C(=O)N[C@@H](CCC(=O)O)C(N)=O [Example 1113],343 nM,1.12 nM,88.2 nM,3.47 nM,14.4 nM,0.0414 nM,,,
CC[C@H](C)[C@H](NC(=O)[C@H](CC(C)C)NC(=O)[C@](C)(Cc1ccc(O)cc1)NC(=O)[C@H](CCC(=O)O)NC(=O)[C@@H](NC(=O)[C@H](Cc1ccccc1)NC(=O)[C@H](CCC(N)=O)NC(=O)[C@](C)(Cc1ccncc1)NC(=O)[C@H](CCC(N)=O)NC(=O)[C@H](C)NC(=O)[C@H](CCCCNC(=O)[C@@H](CCC(=O)O)NC(=O)CC[C@H](NC(=O)CCCCCCCCCCCCCCCCC(=O)O)C(=O)O)NC(=O)[C@H](CCCN)NC(=O)[C@H](CC(=O)O)NC(=O)[C@H](CC(C)C)NC(=O)[C@](C)(CC(C)C)NC(=O)[C@H](CCC(N)=O)NC(=O)[C@H](CO)NC(=O)[C@H](Cc1ccncc1)NC(=O)[C@H](CC(=O)O)NC(=O)[C@H](CO)NC(=O)[C@@H](NC(=O)[C@H](Cc1ccccc1)NC(=O)[C@@H](NC(=O)CNC(=O)[C@H](CCC(N)=O)NC(=O)C(C)(C)NC(=O)[C@@H](N)Cc1ccc(O)cc1)[C@@H](C)O)[C@@H](C)O)[C@@H](C)CC)C(=O)N[C@@H](C)C(=O)NC(C)(C)C(=O)NCC(=O)N1CCC[C@H]1C(=O)N[C@@H](CO)C(=O)N[C@@H](CO)C(=O)NCC(=O)N[C@@H](C)C(=O)N1CCC[C@H]1C(=O)N1CCC[C@H]1C(=O)N1CCC[C@H]1C(=O)N[C@@H](CO)C(=O)NCC(=O)N[C@@H](CO)C(=O)N[C@@H](CCC(=O)O)C(=O)N[C@@H](CCC(=O)O)C(N)=O [Example 1115],420 nM,2 nM,60.4 nM,1.28 nM,12.7 nM,0.0246 nM,,,
H-Y[Aib]QGTFTSDFS[Orn][αMeL]LDKK([AEEA-γGlu-C18 diacid])AQ[Aib]AFIEYLLEGGPSSGAPPPGGS [Example 196],,5.67 nM,,,8.83 nM,0.42 nM,620 nM,458 nM,51.4 nM
H-Y[Aib]QGTFTSDFS[Orn][αMeL]LDKK([AEEA-γGlu-C18 diacid])AQ[Aib]AFIEYLLEGGPSSGAPPPGGT-OH [Example 197],,4.81 nM,,,3.23 nM,0.31 nM,613 nM,440 nM,44.1 nM
H-Y[Aib]QGTFTSDFS[Orn][αMeL]LDKK([AEEA-γGlu-C18 diacid])AQ[Aib]AFIEYLLEGGPSSGA[Hyp]PPGGS-NH2 [Example 235],,3.55 nM,,,4.35 nM,0.388 nM,700 nM,457 nM,40.8 nM
H-Y[Aib]QGTFTSDFS[Orn][αMeL]LDKK([γGlu-γGlu-C18 diacid])AQ[Aib]AFIEYLLEGGPSSGAPPPSGSEE-NH2 [Example 1047],1510 nM,16.2 nM,1960 nM,60.8 nM,8.18 nM,0.28 nM,,,
H-Y[Aib]QGTFTSD[4Pal]SQ[αMeL]LDKK([AEEA-γGlu-C18 diacid])AQ[αMe4Pal]AFIEYLIE[Aib]GPSSGAPPPSGSE [Example 887],525 nM,3 nM,403 nM,37.1 nM,5.28 nM,0.145 nM,,,
H-Y[Aib]QGTFTSD[4Pal]SQ[αMeL]LDKK([AEEA-γGlu-C18 diacid])AQ[αMe4Pal]AFIEYLIE[Aib]GPSSGAPPPS[dE]E-OH [Example 919],467 nM,3.91 nM,454 nM,25.8 nM,3.51 nM,0.182 nM,,,
H-Y[Aib]QGTFTSD[4Pal]SQ[αMeL]LDKK([AEEA-γGlu-C18 diacid])AQ[αMe4Pal]AFIEYLIE[Aib]GPSSGAPPPS[dE]G [Example 918],590 nM,2.85 nM,484 nM,18 nM,3.35 nM,0.173 nM,,,
H-Y[Aib]QGTFTSD[4Pal]SQ[αMeL]LDKK([dE-dE-γGlu-C18 diacid])AQ[αMe4Pal]AFIEYLIE[Aib]GPSSGAPPPSGSEE-NH2 [Example 929],2690 nM,7.51 nM,593 nM,22.6 nM,12.6 nM,0.0953 nM,,,
H-Y[Aib]QGTFTSD[4Pal]SQ[αMeL]LDKK([dE-γGlu-dE-C18 diacid])AQ[αMe4Pal]AFIEYLIE[Aib]GPSSGAPPPSGSE-NH2 [Example 927],1210 nM,8.34 nM,584 nM,22.2 nM,15.8 nM,0.213 nM,,,
H-Y[Aib]QGTFTSD[4Pal]SQ[αMeL]LDKK([γGlu-γGlu-C18 diacid])AQ[αMe4Pal]AFIEYLIE[Aib]GPSSGAPPPSGSE [Example 892],529 nM,4.41 nM,405 nM,21.5 nM,3.85 nM,0.149 nM,,,
H-Y[Aib]QGTFTSD[4Pal]SQ[αMeL]LDKK([γGlu-γGlu-C18 diacid])AQ[αMe4Pal]AFIEYLIE[Aib]GPSSGAPPPSGSGE [Example 893],508 nM,2.9 nM,305 nM,21.4 nM,5.8 nM,0.166 nM,,,
H-Y[Aib]QGTFTSD[4Pal]SQ[αMeL]LD[Orn]K([AEEA-γGlu-C18 diacid])AQ[αMe4Pal]AFIEYLIAGGPSSGAPPPSGSEE-NH2 [Example 1032],900 nM,1.19 nM,148 nM,21.9 nM,5.94 nM,0.204 nM,,,
H-Y[Aib]QGTFTSD[4Pal]SQ[αMeL]LD[Orn]K([AEEA-γGlu-C18 diacid])AQ[αMe4Pal]AFIEYLIE[Aib]GPSSGAPPPSGS-NH2 [Example 833],305 nM,1.28 nM,148 nM,17.5 nM,3.2 nM,0.114 nM,,,
H-Y[Aib]QGTFTSD[4Pal]SQ[αMeL]LD[Orn]K([Glu-Glu-γGlu-C18 diacid])AQ[αMe4Pal]AFIQ[αMeY]LIEGGPSSGAPPPSGSEEE-NH2 [Example 1078],1680 nM,1.62 nM,264 nM,38.6 nM,7.58 nM,0.356 nM,,,
H-Y[Aib]QGTFTSD[4Pal]SQ[αMeL]LD[Orn]K([Glu-γGlu-C18 diacid])AQ[αMe4Pal]AFIEYLIAGGPSSGAPPPSGSEE-NH2 [Example 1033],2170 nM,1.21 nM,221 nM,23.4 nM,15.4 nM,0.144 nM,,,
H-Y[Aib]QGTFTSD[4Pal]SQ[αMeL]LD[Orn]K([dE-Glu-Glu-C18 diacid])AQ[αMe4Pal]AFIEYLIAGGPSSGAPPPSGSEE-NH2 [Example 1034],1890 nM,2.49 nM,317 nM,23 nM,12.3 nM,0.214 nM,,,
